This is an account of results in patent US20240076381A1 (BOARD OF TRUSTEES OF THE UNIVERSITY OF ILLINOIS, published 2024).

The term Kd denotes the equilibrium constant for the complex coming apart.

The target of the assay is T1, Human serum albumin (human, UniProt P02768).
T1 construct: mature; also called full-length albumin
The experiment in a line: ELISA on coated FcRn-β2m fusion, pH 6; KD estimated by saturation binding fit; pH 6.

B1: FcRn-µ2m fusion protein (human β2m fused by (Gly4Ser)3 to the extracellular domain of human FcRn, His-tagged) (receptor)
chain: not shown
notes: also called FcRn-µ2m complex
For B1, the equilibrium dissociation constant (Kd) is 300 nM.
